Data: PubChem BioAssay AID1508642 (National Center for Advancing Translational Sciences (NCATS), 2021)
In all, about 43,000 compounds went through this assay and about 200 (0.47%) were called active. Inconclusive means that the source gave no clear call. Such entries were picked first, then a sample of the others. The call rests on the fitted dose curve; in most records, active means well fitted cell-killing curve with a large enough effect; inconclusive means small, poorly fitted or top-dose-only effect, or effect the other way; inactive means flat fitted curve, though single readings scatter. A potency beside an inconclusive call is a rough fit, not a confirmed value.

Test: Cell viability qHTS assay in S16 Pmp22-F2sN cells; further: nearly all actives have a fitted effect of over 65% in size
Settings: S16 Pmp22-F2sN Schwann cells (luciferase reporters placed in the Pmp22 gene) viability, CellTiter-Glo, 24 h; activity change, negative = cytotoxicity: at 57.5 µM (top of the series)
Procedure, shortened: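 S16 Schwann cells carrying the Pmp22-F2sN reporter, seeded in 1536-well format, were exposed to library compounds for 24 h at 37C. Viability was read as CellTiter-Glo luminescence after 15 min at room temperature.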
On the % scale 0 is the no-effect control and ±100 the full control effect; potency means the concentration at half of the fitted maximal effect; tags describe the fitted curve by direction and shape.

Compound | Potency | activity change, negative = cytotoxicity
CCOc1ccc(-n2c(=O)c3c(C)c(C)sc3n(CC(=O)Nc3ccc(CC)cc3)c2=O)cc1 | inconclusive: 31.6 µM [cytotoxic, partial curve, poor fit] | 
COc1ccc(Br)cc1CNC(=O)c1cnc2sc(N3CCCCCC3)nn2c1=O | inconclusive: 20 µM [cytotoxic, single point] | 
CC1CCN(C(=O)Cn2cc(SCC(=O)Nc3ccccc3C(F)(F)F)c3ccccc32)CC1 | inconclusive: 25.1 µM [cytotoxic, partial curve, poor fit] | 
O=C(NCc1cccs1)c1ccc(CSc2nc3cccnc3n2Cc2ccc(F)cc2)cc1 | inconclusive: 39.8 µM [cytotoxic, single point] | 
Cc1cc(C)cc(NC(=O)C2CCN(C(=O)c3cnn(-c4ccccc4)c3-n3cccc3)CC2)c1 | inconclusive: 25.1 µM [cytotoxic, single point] | 
CC1CCn2c(nc3cc(C(=O)NCc4ccc(F)cc4)ccc32)C1 (configuration not stated) | inconclusive: 0.112 µM [rising, full curve, poor fit] | 
COc1ccccc1CNc1ccc(-c2nc(-c3ccccc3C)no2)cc1[N+](=O)[O-] |  | inactive: -0.135%
O=C(c1ccc(Nc2nc3ccccc3n3nnnc23)cc1)N1CCN(c2ccc(F)cc2)CC1 | inconclusive: 15.8 µM [cytotoxic, partial curve, poor fit] | 
COc1ccc(C)cc1NS(=O)(=O)c1ccc(-c2cnc(C3CC3)o2)cc1 | inconclusive: 4.47 µM [rising, full curve, poor fit] | 
CCCN(C(=O)c1cc2c(=O)n(CC)c3ccccc3c2s1)c1ccccc1F |  | inactive: 6.02%
Cc1cc(C)cc(N2C(=O)CS(=O)(=O)C23C(=O)N(C)c2ccccc23)c1 (configuration not stated) |  | inactive: 7.36%
Cc1nc(-c2ccc(S(=O)(=O)N(C)Cc3ccccc3)cc2)co1 | inconclusive: 0.282 µM [rising, full curve, poor fit] | 
COc1ccccc1Nc1c2c(nc3ccc(NC(=O)/C=C/c4cc(OC)c(OC)c(OC)c4)cc13)CCCC2 | inconclusive: 39.8 µM [cytotoxic, single point] | 
COc1ccccc1CNC(=O)c1ccc(CSc2nc3ccncc3n2Cc2ccccc2C)cc1 | inconclusive: 39.8 µM [cytotoxic, single point] | 
CC(C)c1ccc(NC(=O)C2Cc3ccccc3N2C(=O)c2ccccc2)cc1 (configuration not stated) | inconclusive: 10 µM [cytotoxic, partial curve] | 
O=C(Nc1ccc(Br)cc1)c1ccc(Cl)c(S(=O)(=O)N2CCCCCC2)c1 |  | inactive: 2.59%
CCCCN(CCCC)C1=C(C(=O)c2ccccc2)N(CC)S(=O)(=O)c2ccccc21 | inconclusive: 39.8 µM [cytotoxic, partial curve, poor fit] | 
